For 42 sequences, binding signal results are on record in PMC7819943, “Rice protein-binding microarrays: a tool to detect cis-acting elements near promoter regions in rice”.

The list shows a part of the results.

The test deals with T1, OsWOX13 (Oryza sativa, UniProt Q5QMM3 1-267).
T1 sequence: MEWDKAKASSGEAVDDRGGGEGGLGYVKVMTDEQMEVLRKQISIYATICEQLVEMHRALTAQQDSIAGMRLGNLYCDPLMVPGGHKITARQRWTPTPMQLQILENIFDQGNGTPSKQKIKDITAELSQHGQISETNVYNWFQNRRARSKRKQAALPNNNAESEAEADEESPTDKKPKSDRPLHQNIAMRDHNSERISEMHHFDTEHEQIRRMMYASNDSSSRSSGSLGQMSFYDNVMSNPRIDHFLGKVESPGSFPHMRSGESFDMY
The test is described as follows: protein-binding microarray (RPBM); PBS, 2% BSA, 51.3 ng/ul salmon testes DNA, 50 uM zinc acetate, 200 nM TF, 25 C, 1 h; high values mean tight binding. The note with it: protein: recombinant; tags: N-terminal polyhistidine and DsRed monomer fusion (pET32a); label: CyDye5-dUTP incorporated in the synthesized complementary strand; 3' TTTTT single-stranded linker to array surface; dsDNA, one strand shown. Summed up:
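Polyhistidine-tagged DsRed fusions of transcription factors, joined at the N-terminus, were expressed in E. coli BL21-CodonPlus and isolated on Ni–NTA. They were incubated at 200 nM for 1 h at 25 °C on a custom Agilent array, double-stranded and BSA-blocked, in PBS with 2% BSA, salmon testes DNA and 50 µM zinc acetate. The binding signal is per-feature fluorescence intensity (arbitrary units) read on an Axon 4000B scanner after washing.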
As to “CGGGTTAGATTATAATTGTAAATTTCAGTTCAATTTGCAGCGGAGTCACCTAGTGCAG”, the binding signal is 21900 fluorescence intensity (a.u.).

As for “CACATTGTTCCAATTTCAATCAAACTCTCAATTTTGACGTCGGAGTCACCTAGTGCAG”, the binding signal is 5040 fluorescence intensity (a.u.).

With “AAAATTGAGTCCAAATCAAACAAGTTAATTTCGCGCATCTCGGAGTCACCTAGTGCAG”, the binding signal was 24400 fluorescence intensity (a.u.).

“TAGGATTGAAATCCTTCAAATTTCCTACACTTTTCCTACACGGAGTCACCTAGTGCAG”: the binding signal is 14500 fluorescence intensity (a.u.).

For “TTCAAAAGATTAGAATAAATTGAGTTCAAACAATTCAAATCGGAGTCACCTAGTGCAG”, the binding signal is 5660 fluorescence intensity (a.u.).

Consider “CTCCCAATTATCCTCTCCTCCTCTGCTTCATCTCCACCACCGGAGTCACCTAGTGCAG”, for which the binding signal is 6500 fluorescence intensity (a.u.).

On to “AAAATTATCCAATCTTCACCTCCCACACCCCGAGCTCGAGCGGAGTCACCTAGTGCAG”, for which the binding signal was 4600 fluorescence intensity (a.u.).

With “ATAACAATAATTAATCAGCACGAGACAAGTCCCTATCCAACGGAGTCACCTAGTGCAG”, the binding signal was 16000 fluorescence intensity (a.u.).

With “TATAATTGCCGAATCAGTTAGAAGACATTTTCATTGATAGCGGAGTCACCTAGTGCAG”, the binding signal is 21800 fluorescence intensity (a.u.).

With “AAGCGAAGAGCTCTGATTGCTGGTGGTGATGATTACCGGACGGAGTCACCTAGTGCAG”, the binding signal is 6620 fluorescence intensity (a.u.).

As for “ATTGATCAAAATTTTCCTCTCGTTGTTCTGCTTAGTACTGCGGAGTCACCTAGTGCAG”, the binding signal is 6770 fluorescence intensity (a.u.).

“AAAATAAATAATCTAACGTTACTAACAAAGTTAATGGTGTCGGAGTCACCTAGTGCAG”: the binding signal is 3730 fluorescence intensity (a.u.).

With “ATAAATATATTGTACTAACATATGCTAATTTATTGTGTAACGGAGTCACCTAGTGCAG”, the binding signal was 5570 fluorescence intensity (a.u.).

As for “GTCCAATCTTTCAATGAAATTGTTCTTTGGGCTCTAACGTCGGAGTCACCTAGTGCAG”, the binding signal was 3870 fluorescence intensity (a.u.).

Turning to “AAATAAATTATCCTGTGAATTAACTATGCTGCTAATTGCTCGGAGTCACCTAGTGCAG”, the binding signal was 22900 fluorescence intensity (a.u.).

Take “AAAATATAATTATTGTTGTGAATATTACTTTATACGTGACCGGAGTCACCTAGTGCAG”: the binding signal was 12100 fluorescence intensity (a.u.).

Consider “AACTAATTTAATAAATGAGAGCTAATCCGCGAGACGAATTCGGAGTCACCTAGTGCAG”, for which the binding signal was 21100 fluorescence intensity (a.u.).

Turning to “AACCAACGGTCAGATTTAATTGGTACCTGGTACCTCATAGCGGAGTCACCTAGTGCAG”, the binding signal was 3830 fluorescence intensity (a.u.).

Take “TAAAATTACCGGCCCGGATGAAACAGTCACGCCTAACTACCGGAGTCACCTAGTGCAG”: the binding signal was 3880 fluorescence intensity (a.u.).

Take “TTATTTATAAAACTAATTACATAAATGAGAGCTAATCTGCCGGAGTCACCTAGTGCAG”: the binding signal was 3810 fluorescence intensity (a.u.).

Take “GAATTAATTAGTACTTGAATACTTGATCTCTAGATATATGCGGAGTCACCTAGTGCAG”: the binding signal is 20500 fluorescence intensity (a.u.).

Regarding “GCCAAGTTTAATCATGCATTGTAATTATACTAGAGGGAGTCGGAGTCACCTAGTGCAG”, the binding signal is 11500 fluorescence intensity (a.u.).

On to “TTTGACAGGCCATCAGGTTAACAGCATAATACTTGTGATTCGGAGTCACCTAGTGCAG”, for which the binding signal was 27200 fluorescence intensity (a.u.).

Regarding “TGAAAATTAATTATAAATATTAAACGTAGACTATTAATAACGGAGTCACCTAGTGCAG”, the binding signal is 11800 fluorescence intensity (a.u.).

“CCAAATTAGACCTTATGTAAGCTTTTGTTAGCAACTGCAACGGAGTCACCTAGTGCAG”: the binding signal was 10300 fluorescence intensity (a.u.).

In the case of “GTCTTAATTGTGATCTTGTATTATTGTTAGTTTGGCGCCCCGGAGTCACCTAGTGCAG”, the binding signal was 29800 fluorescence intensity (a.u.).

In the case of “CCATTAAAGATGTTATGATTAATCATCATTACAAATTCAACGGAGTCACCTAGTGCAG”, the binding signal was 5620 fluorescence intensity (a.u.).

As for “CCATGTGAATGACTGATCAGCCAGCACAGTAGTTAGCATACGGAGTCACCTAGTGCAG”, the binding signal was 4300 fluorescence intensity (a.u.).

On to “ACAAATTGGAATGATCAAATTGAGTTAAACTAAGGAGATACGGAGTCACCTAGTGCAG”, for which the binding signal was 39700 fluorescence intensity (a.u.).

Consider “AAAACTCAATCAATCATACGTTAATACCATCTCATTTTACCGGAGTCACCTAGTGCAG”, for which the binding signal was 24500 fluorescence intensity (a.u.).

“GAGCATCCAAATCAATCAATTATTGGACCATTATTGGGCTCGGAGTCACCTAGTGCAG”: the binding signal was 26400 fluorescence intensity (a.u.).

With “GAAAAGATTGAAGGGATCAAGGGAGTACAACAAAACACTTCGGAGTCACCTAGTGCAG”, the binding signal was 3900 fluorescence intensity (a.u.).

Take “AGCTGATTGCAACAACAAAGCTCCATATCATAGAACTAAACGGAGTCACCTAGTGCAG”: the binding signal is 26700 fluorescence intensity (a.u.).

Regarding “AATCAACTATAATTAGTTGGCTATATTATTAAACTTGATCCGGAGTCACCTAGTGCAG”, the binding signal is 4900 fluorescence intensity (a.u.).

“GATTTCATAACTCCTAATTAATCAGTAGAATTACTAATCACGGAGTCACCTAGTGCAG”: the binding signal is 6940 fluorescence intensity (a.u.).

Turning to “TCAGTATATTGATTGTTAGTCTTTTATCGTCTTGAATGAACGGAGTCACCTAGTGCAG”, the binding signal is 31300 fluorescence intensity (a.u.).

Regarding “CATAACAGGCTTTAACTTTAAACATGCCATCCCTAACTTTCGGAGTCACCTAGTGCAG”, the binding signal was 6270 fluorescence intensity (a.u.).

For the sequence “ATAATAAACAGTAATATAAGAAATATCACTCCACGAATATCGGAGTCACCTAGTGCAG”, the binding signal is 3430 fluorescence intensity (a.u.).

With “AGATATCCAATCAAGGCTTTCATCGCTAGTCATCTATATCCGGAGTCACCTAGTGCAG”, the binding signal was 9590 fluorescence intensity (a.u.).

In the case of “CGACAAATTTACAAGTCAGTTGCTGCCACTGTTTTCTATACGGAGTCACCTAGTGCAG”, the binding signal is 5560 fluorescence intensity (a.u.).

As to “CTTAACTCTGGAGTTATTTGGAGATTGGCTTCCGGAAAAGCGGAGTCACCTAGTGCAG”, the binding signal is 3150 fluorescence intensity (a.u.).

For the sequence “AATCTTGGCAAATTTCCTTAATTTGAACCTACGTGTTAAACGGAGTCACCTAGTGCAG”, the binding signal is 5550 fluorescence intensity (a.u.).
